The other results are listed elsewhere or left out.
Tests used:
Assay in all cases: glycan array binding signal (z-score within array); higher = stronger binding
Conditions in all cases: glycan notation: IUPAC condensed, linker removed
[1] = target: Fuc(a1-2)Gal
Method in brief: (§1)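 Negative Z-scores can be read as non-binding. The Z-score is calculated within each array and then averaged across arrays of one protein sequence at different concentrations or buffers and across linkers. Arrays, 3228 in all, were curated from the Consortium for Functional Glycomics database and kept only where the protein sequence was available.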

[2] = target: Fuc(a1-2)Gal(b1-3)GalNAc
Method in brief: as §1

[3] = target: Fuc(a1-2)Gal(b1-3)GalNAc(a1-3)[Fuc(a1-2)]Gal(b1-4)Glc
Method in brief: as §1

[4] = target: Fuc(a1-2)Gal(b1-3)GalNAc(a1-3)[Fuc(a1-2)]Gal(b1-4)GlcNAc
Method in brief: as §1

[5] = target: Fuc(a1-2)Gal(b1-3)GalNAc(b1-3)Gal
Method in brief: as §1

[6] = target: Fuc(a1-2)Gal(b1-3)GalNAc(b1-3)Gal(a1-4)Gal(b1-4)Glc
Method in brief: as §1

[7] = target: Fuc(a1-2)Gal(b1-3)GalNAc(b1-4)[Neu5Ac(a2-3)]Gal(b1-4)Glc
Method in brief: as §1

[8] = target: Fuc(a1-2)Gal(b1-3)GlcNAc
Method in brief: as §1

[9] = target: Fuc(a1-2)Gal(b1-3)GlcNAc(b1-2)Man(a1-3)[Fuc(a1-2)Gal(b1-3)GlcNAc(b1-2)Man(a1-6)]Man(b1-4)GlcNAc(b1-4)GlcNAc
Method in brief: as §1

[10] = target: Fuc(a1-2)Gal(b1-3)GlcNAc(b1-2)Man(a1-3)[Fuc(a1-2)Gal(b1-3)GlcNAc(b1-2)Man(a1-6)]Man(b1-4)GlcNAc(b1-4)[Fuc(a1-6)]GlcNAc
Method in brief: as §1

[11] = target: Fuc(a1-2)Gal(b1-3)GlcNAc(b1-3)Gal(b1-4)Glc
Method in brief: as §1

[12] = target: Fuc(a1-2)Gal(b1-3)GlcNAc(b1-3)GalNAc
Method in brief: as §1

[13] = target: Fuc(a1-2)Gal(b1-3)GlcNAc(b1-3)[Fuc(a1-2)Gal(b1-3)GlcNAc(b1-6)]GalNAc
Method in brief: as §1

[14] = target: Fuc(a1-2)Gal(b1-3)GlcNAc(b1-3)[Gal(b1-4)GlcNAc(b1-6)]Gal(b1-4)Glc
Method in brief: as §1

[15] = target: Fuc(a1-2)Gal(b1-3)GlcNAc(b1-3)[Neu5Ac(a2-6)Gal(b1-4)GlcNAc(b1-6)]Gal(b1-4)Glc
Method in brief: as §1

[16] = target: Fuc(a1-2)Gal(b1-3)GlcNAc6S
Method in brief: as §1

[17] = target: Fuc(a1-2)Gal(b1-3)[Fuc(a1-4)]GlcNAc
Method in brief: as §1

[18] = target: Fuc(a1-2)Gal(b1-3)[Fuc(a1-4)]GlcNAc(b1-2)Man(a1-3)[Fuc(a1-2)Gal(b1-3)[Fuc(a1-4)]GlcNAc(b1-2)Man(a1-3)]Man(b1-4)GlcNAc(b1-4)GlcNAc
Method in brief: as §1

[19] = target: Fuc(a1-2)Gal(b1-3)[Fuc(a1-4)]GlcNAc(b1-2)Man(a1-3)[Fuc(a1-2)Gal(b1-3)[Fuc(a1-4)]GlcNAc(b1-2)Man(a1-6)]Man(b1-4)GlcNAc(b1-4)[Fuc(a1-6)]GlcNAc(b1-4)[Fuc(a1-6)]GlcNAc
Method in brief: as §1

[20] = target: Fuc(a1-2)Gal(b1-3)[Fuc(a1-4)]GlcNAc(b1-3)[Fuc(a1-3)[Gal(b1-4)]GlcNAc(b1-6)]Gal(b1-4)Glc
Method in brief: as §1

[21] = target: Fuc(a1-2)Gal(b1-3)[Fuc(a1-4)]GlcNAc(b1-3)[Gal(b1-4)GlcNAc(b1-6)]Gal(b1-4)Glc
Method in brief: as §1

[22] = target: Fuc(a1-2)Gal(b1-4)Glc
Method in brief: as §1

[23] = target: Fuc(a1-2)Gal(b1-4)Glc6S
Method in brief: as §1

[24] = target: Fuc(a1-2)Gal(b1-4)GlcNAc
Method in brief: as §1

[25] = target: Fuc(a1-2)Gal(b1-4)GlcNAc(b1-2)Man
Method in brief: as §1

[26] = target: Fuc(a1-2)Gal(b1-4)GlcNAc(b1-2)Man(a1-3)[Fuc(a1-2)Gal(b1-4)GlcNAc(b1-2)Man(a1-6)]Man(b1-4)GlcNAc(b1-4)GlcNAc
Method in brief: as §1

[27] = target: Fuc(a1-2)Gal(b1-4)GlcNAc(b1-2)Man(a1-3)[Fuc(a1-2)Gal(b1-4)GlcNAc(b1-2)Man(a1-6)]Man(b1-4)GlcNAc(b1-4)[Fuc(a1-6)]GlcNAc
Method in brief: as §1

[28] = target: Fuc(a1-2)Gal(b1-4)GlcNAc(b1-2)[Fuc(a1-2)Gal(b1-4)GlcNAc(b1-4)]Man(a1-3)[Fuc(a1-2)Gal(b1-4)GlcNAc(b1-2)Man(a1-6)]Man(b1-4)GlcNAc(b1-4)GlcNAc
Method in brief: as §1

[29] = target: Fuc(a1-2)Gal(b1-4)GlcNAc(b1-3)Gal(b1-4)GlcNAc
Method in brief: as §1

[30] = target: Fuc(a1-2)Gal(b1-4)GlcNAc(b1-3)Gal(b1-4)GlcNAc(b1-2)Man(a1-3)[Fuc(a1-2)Gal(b1-4)GlcNAc(b1-3)Gal(b1-4)GlcNAc(b1-2)Man(a1-6)]Man(b1-4)GlcNAc(b1-4)GlcNAc
Method in brief: as §1

[31] = target: Fuc(a1-2)Gal(b1-4)GlcNAc(b1-3)Gal(b1-4)GlcNAc(b1-3)Gal(b1-4)GlcNAc
Method in brief: as §1

[32] = target: Fuc(a1-2)Gal(b1-4)GlcNAc(b1-3)GalNAc
Method in brief: as §1

[33] = target: Fuc(a1-2)Gal(b1-4)GlcNAc(b1-3)[Fuc(a1-2)Gal(b1-4)GlcNAc(b1-6)]GalNAc
Method in brief: as §1

[34] = target: Fuc(a1-2)Gal(b1-4)GlcNAc(b1-3)[Fuc(a1-3)[Gal(b1-4)]GlcNAc(b1-6)]Gal(b1-4)Glc
Method in brief: as §1

[35] = target: Fuc(a1-2)Gal(b1-4)GlcNAc(b1-6)GalNAc
Method in brief: as §1

[36] = target: Fuc(a1-2)Gal(b1-4)GlcNAc6S
Method in brief: as §1

[37] = target: Fuc(a1-2)Gal(b1-4)[Fuc(a1-3)]GlcNAc
Method in brief: as §1

[38] = target: Fuc(a1-2)Gal(b1-4)[Fuc(a1-3)]GlcNAc(b1-2)Man(a1-3)[Fuc(a1-2)Gal(b1-4)[Fuc(a1-3)]GlcNAc(b1-2)Man(a1-6)]Man(b1-4)GlcNAc(b1-4)[Fuc(a1-6)]GlcNAc
Method in brief: as §1

[39] = target: Fuc(a1-2)Gal(b1-4)[Fuc(a1-3)]GlcNAc(b1-2)[Fuc(a1-2)Gal(b1-4)[Fuc(a1-3)]GlcNAc(b1-4)]Man(a1-3)[Fuc(a1-2)Gal(b1-4)[Fuc(a1-3)]GlcNAc(b1-2)Man(a1-6)]Man(b1-4)GlcNAc(b1-4)GlcNAc
Method in brief: as §1

[40] = target: Fuc(a1-2)Gal(b1-4)[Fuc(a1-3)]GlcNAc(b1-3)Gal(b1-4)[Fuc(a1-3)]GlcNAc
Method in brief: as §1

[41] = target: Fuc(a1-2)Gal(b1-4)[Fuc(a1-3)]GlcNAc(b1-3)Gal(b1-4)[Fuc(a1-3)]GlcNAc(b1-3)Gal(b1-4)[Fuc(a1-3)]GlcNAc
Method in brief: as §1

[42] = target: Fuc(a1-2)Gal(b1-4)[Fuc(a1-3)]GlcNAc(b1-3)GalNAc
Method in brief: as §1

[43] = target: Fuc(a1-2)Gal(b1-4)[Fuc(a1-3)]GlcNAc(b1-3)[Neu5Ac(a2-6)Gal(b1-4)GlcNAc(b1-6)]Gal(b1-4)Glc
Method in brief: as §1

[44] = target: Fuc(a1-2)Gal3S(b1-4)GlcNAc
Method in brief: as §1

[45] = target: Fuc(a1-2)Gal6S(b1-3)GlcNAc
Method in brief: as §1

B1: LecB LY19 (Pseudomonas aeruginosa) (protein)
chain: MATQGVFTLPANTQFGVTAFANSAGTQTVNVQVNNETVATFTGQSTNNGIIGSKVLNSGGGGKVQILVSVNGRSSDLVSAQVILANELNFALVGSEDSTDNDYNDAVVVINWPLG
[1]
  glycan array binding signal (z-score): 2.02
[2]
  glycan array binding signal (z-score): 0.684
[3]
  glycan array binding signal (z-score): 1.31
[4]
  glycan array binding signal (z-score): 0.778
[5]
  glycan array binding signal (z-score): -0.059
[6]
  glycan array binding signal (z-score): 1.77
[7]
  glycan array binding signal (z-score): 0.344
[8]
  glycan array binding signal (z-score): 1.63
[9]
  glycan array binding signal (z-score): 0.156
[10]
  glycan array binding signal (z-score): 0.84
[11]
  glycan array binding signal (z-score): 1.85
[12]
  glycan array binding signal (z-score): 1.49
[13]
  glycan array binding signal (z-score): 0.059
[14]
  glycan array binding signal (z-score): 0.621
[15]
  glycan array binding signal (z-score): 0.085
[16]
  glycan array binding signal (z-score): 1.31
[17]
  glycan array binding signal (z-score): 1.39
[18]
  glycan array binding signal (z-score): 0.406
[19]
  glycan array binding signal (z-score): 2.4
[20]
  glycan array binding signal (z-score): 1.32
[21]
  glycan array binding signal (z-score): 1.21
[22]
  glycan array binding signal (z-score): 1.5
[23]
  glycan array binding signal (z-score): 1.37
[24]
  glycan array binding signal (z-score): 1.54
[25]
  glycan array binding signal (z-score): -0.476
[26]
  glycan array binding signal (z-score): 1.84
[27]
  glycan array binding signal (z-score): 1.24
[28]
  glycan array binding signal (z-score): 1.72
[29]
  glycan array binding signal (z-score): 3.29
[30]
  glycan array binding signal (z-score): -0.396
[31]
  glycan array binding signal (z-score): 3.69
[32]
  glycan array binding signal (z-score): -0.53
[33]
  glycan array binding signal (z-score): 1.24
[34]
  glycan array binding signal (z-score): 1.59
[35]
  glycan array binding signal (z-score): 1
[36]
  glycan array binding signal (z-score): 1.24
[37]
  glycan array binding signal (z-score): 2.54
[38]
  glycan array binding signal (z-score): 5.32
[39]
  glycan array binding signal (z-score): 0.085
[40]
  glycan array binding signal (z-score): 5.07
[41]
  glycan array binding signal (z-score): 3.27
[42]
  glycan array binding signal (z-score): -0.338
[43]
  glycan array binding signal (z-score): 0.417
[44]
  glycan array binding signal (z-score): 1.58
[45]
  glycan array binding signal (z-score): 1.56

Reference: the supplement of paper PMC8728848
